# Results published in PubChem BioAssay AID686978 (National Center for Advancing Translational Sciences (NCATS), 2013).
# The campaign covered roughly 420,000 compounds. About 64,000 (15%) were called active. Inconclusive means that the source gave no clear call. Such entries were picked first, then a sample of the others. Calls come from the whole dose curve; as a rule, active = well fitted inhibition curve with a large enough effect; inconclusive = small, poorly fitted or top-dose-only effect; inactive = flat fitted curve, though single readings scatter. Potencies of inconclusive entries are left out as doubtful fits.
# Test: qHTS for Inhibitors of human tyrosyl-DNA phosphodiesterase 1 (TDP1): qHTS in cells in absence of CPT; note: nearly all actives have a fitted effect of over 55% in size
# Details: DT40 Tdp1-/- hTDP1 cells, no CPT, ATP luminescence, 48 h; activity change, negative = growth inhibition: at 46.2 µM (top of the series) unless noted
# Outline: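 Luminescent ATP content (CellTiter-Glo) served as the growth readout. Knockout chicken DT40 cells expressing human TDP1 were exposed to compounds without camptothecin for a minimum 48 hr at 37 °C.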
# % is set by controls: 0 for no effect and ±100 for the full control effect; potency is the fitted concentration of half-maximal effect; tags give direction and shape of the fitted curve.
SMILES,"activity change, negative = growth inhibition",Potency
CC(NS(=O)(=O)OCC(Cl)(Cl)Cl)c1ccc(Br)cc1 (stereo unspecified),inactive: -26.5%,–
CC(C)(C)OC(=O)C[C@H]1C/C=C\C[C@@H](CC(=O)NCCO)C(=O)N[C@H](C(C)(C)C)COC1=O,inactive: 2.54%,–
CSCCC(=O)N1CCN(CC(=O)N2CCCC2)CC1,inactive: -10.2%,–
C=CCNC(=O)/C=C/c1ccc(C(C)C)cc1,–,"inconclusive [inhibitor, single point]"
O=C(C1COc2ccccc2O1)N1CCN(S(=O)(=O)c2ccccc2)CC1 (stereo unspecified),inactive: -13%,–
Cc1ccc(OCCn2c(C3CC(=O)N(Cc4ccccc4)C3)nc3ccccc32)cc1 (stereo unspecified),–,active: 14.6 µM
O=C(Cc1ccc(F)cc1)NCc1nc2cccnc2n1Cc1ccc(F)cc1,–,"inconclusive [inhibitor, partial curve]"
FC(F)(F)c1cccc(N2CCN(Cc3nnc(-c4ccc5c(c4)OCO5)o3)CC2)c1,–,active: 16.4 µM
C=CCNC(=O)CSc1nnc(C(CC)N(C)C)n1C1CCCCC1 (stereo unspecified),inactive: 15.4%,–
CCCCN(C(=O)c1ccc(S(=O)(=O)N2CCOCC2)cc1)C1CCS(=O)(=O)C1 (stereo unspecified),inactive: 2.31%,–
Cc1ccccc1C(=O)Nc1ccc2nc(Nc3cccc(C(F)(F)F)c3)cc(C)c2c1,–,active: 18.4 µM
CC1(OC(=O)CCc2ccccc2)C(=O)C=C2C=C(c3ccc(C#N)cc3)N(CCc3ccccn3)C=C2C1=O (stereo unspecified),inactive: -15.3%,–
CCc1nnc(NC(=O)CSc2nnc(COc3ccc(C)cc3)n2-c2ccccc2)s1,–,"inconclusive [inhibitor, single point]"
O=[N+]([O-])c1cccc2c3c([nH]c12)CCCC3,inactive: -25.1%,–
Cc1cc(C)n(-c2ccc(C(=O)NCc3ccc4c(c3)OCO4)cc2)n1,–,"inconclusive [inhibitor, partial curve]"
CSc1nnc(C)c(=O)n1COC(=O)c1ccc(S(=O)(=O)N2CCCC2)cc1,–,"inconclusive [inhibitor, single point]"
COc1ccc(C(=O)/C=C/Nc2ccc(S(=O)(=O)Nc3onc(C)c3C)cc2)cc1,–,"inconclusive [inhibitor, single point]"
CCOc1ccc(S(=O)(=O)c2c[nH]c3ccccc3c2=O)cc1,–,"inconclusive [inhibitor, single point]"
CCCCNS(=O)(=O)CCNCc1ccccc1OC,inactive: -5.2%,–
CCOc1cc(N2CCOCC2)c(OCC)cc1NC(=O)Cc1ccc(OC)c(OC)c1,–,active: 23.1 µM
Cc1ccc(N=Cc2cc3c(cc2[N+](=O)[O-])OCO3)cc1[N+](=O)[O-],–,"inconclusive [inhibitor, single point]"
CC(C)c1ccc(NC(=O)Cn2cccc2C2=NC(c3ccccc3)CO2)cc1 (stereo unspecified),–,"inconclusive [inhibitor, single point]"
CCOC(=O)c1cccc(NC(=O)N2CC(CC)Sc3ccccc32)c1 (stereo unspecified),–,"inconclusive [inhibitor, single point]"

SMILES,"activity change, negative = growth inhibition",Potency
COC(=O)CSc1nnc(COc2ccc([N+](=O)[O-])cc2)n1C,inactive: 20.9%,–
COc1cccc(CNCCc2c[nH]c3ccccc23)c1OCc1ccccc1,–,active: 9.2 µM
CCc1cc(C(=O)N/N=C/c2ccc(OC)cc2)c2ccccc2n1,–,active: 3.26 µM
COc1ccc(CCNC(=O)COC(=O)c2ccc(F)c(S(=O)(=O)N3CCOCC3)c2)cc1,inactive: 13.8%,–
O=C(Nc1cccc(-c2nc3ccccc3s2)c1)C1=COCCO1,–,"inconclusive [inhibitor, single point]"
Cc1[nH]oc(=O)c1N=Nc1c(Cl)cccc1Cl,–,"inconclusive [inhibitor, single point]"
O=C(O)CCC(=O)N1CCOc2ccc(Cl)cc21,–,"inconclusive [inhibitor, partial curve, poor fit]"
CN1N=C2c3ccccc3CCC2C1c1ccc(Cl)cc1 (stereo unspecified),–,"inconclusive [inhibitor, single point]"
CCn1ccnc1CN(C)Cc1c(C(=O)N2CCCCCCC2)nc2ccc(Cl)cn12,–,"inconclusive [inhibitor, single point]"
COC(=O)c1cccc(Nc2c3c(nc4ccccc24)CCC3)c1,–,active: 10.3 µM
NS(=O)(=O)c1ccc(CCNC(=O)c2ccc3nc(Cc4ccccc4)oc3c2)cc1,–,"inconclusive [inhibitor, partial curve, poor fit]"
Cc1cc2c3c([nH]c2cc1S(=O)(=O)NCCCOC(C)C)CC(C)(C)CC3=O,–,"inconclusive [inhibitor, single point]"
Cn1cc(S(=O)(=O)Nc2ccc(Cl)cc2Cl)c(=O)n(C)c1=O,inactive: -8.43%,–
Cn1c(C(=O)NCCN2CCc3ccccc3C2)cc2c(=O)[nH]c3ccccc3c21,–,active: 16.4 µM
CC1CCC/C(=C\Nc2ccc(C(=O)O)c(O)c2)C1=O (stereo unspecified),–,"inconclusive [inhibitor, partial curve, poor fit]"
O=C(O)CN(C1CCCCC1)S(=O)(=O)c1ccc(F)cc1,inactive: 8.07%,–
CCN1CCN(c2nc3c(c(=O)[nH]c(=O)n3C)n2CCSc2nc3ccccc3s2)CC1,–,"inconclusive [inhibitor, single point]"
C=CCN1C(c2ccc(Br)cc2)=CS/C1=C(\C#N)c1nnc(N2CCOCC2)n1-c1ccccc1,inactive: -94.1%,–
COc1ccc(-c2noc(CSc3nnc(Cc4ccccc4)n3-c3ccc(Cl)cc3)n2)cc1,–,"inconclusive [inhibitor, single point]"
COCC(=O)N1C[C@H](C)[C@H](OC)CN(C)C(=O)c2cc(NC(=O)Nc3cccc(F)c3)ccc2OC[C@@H]1C,–,active: 10.3 µM
COc1ccc(C(CNC(=O)c2ccc(S(=O)(=O)Nc3ccccc3F)cc2)N(C)C)cc1 (stereo unspecified),inactive: 0.312%,–
COc1cc(C(=S)N(C)C)ccc1O,–,"inconclusive [inhibitor, single point]"
CCn1c(N2CCN(CC(=O)c3c(C)n(C)c4ccc(OC)cc34)CC2)nc2c1c(=O)[nH]c(=O)n2C,–,"inconclusive [inhibitor, single point]"
